Test results: PubChem BioAssay AID1347165 (National Center for Advancing Translational Sciences (NCATS), 2019)
In all, about 220,000 compounds went through this assay and about 5,700 (2.6%) were called active. Inconclusive means that the source gave no clear call. Such entries were picked first, then a sample of the others. Calls follow the shape of the dose curve; as a rule, active = well fitted inhibition curve with a large enough effect; inconclusive = small, poorly fitted or top-dose-only effect; inactive = no such curve, though single readings can be large or run the other way. Where the call is inconclusive, the potency comes from a doubtful curve fit.

These molecules were tested against Lysine-specific demethylase 5B (Homo sapiens) (UniProt Q9UGL1) (assay: Primary screen for KDM5B Histone Demethylases FDH-coupled qHTS). Conditions: FDH-coupled NADH fluorescence (FDH is formaldehyde dehydrogenase); activity change, negative = inhibition: at 57.7 µM (top of the series) unless noted.
Procedure, shortened: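 Inhibition is measured as reduced NADH fluorescence generation from FDH coupling to formaldehyde release. Truncated KDM5BΔAP at 200 nM final acts on H3K4me3 peptide (12.5 µM in substrate mix) in pH 7.5 HEPES buffer with Tween-20, 30 min, room temperature.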
Also: nearly all actives have a fitted effect of over 70% in size.
For activity change, negative = inhibition in this document: 0% is about no effect.
Potency is read from the fitted curve at half-maximal effect; tags tell the direction and shape of the fitted curve.

Sequence of UniProt Q9UGL1 (Q9UGL1 whole entry, looked up, the tested form may be a part): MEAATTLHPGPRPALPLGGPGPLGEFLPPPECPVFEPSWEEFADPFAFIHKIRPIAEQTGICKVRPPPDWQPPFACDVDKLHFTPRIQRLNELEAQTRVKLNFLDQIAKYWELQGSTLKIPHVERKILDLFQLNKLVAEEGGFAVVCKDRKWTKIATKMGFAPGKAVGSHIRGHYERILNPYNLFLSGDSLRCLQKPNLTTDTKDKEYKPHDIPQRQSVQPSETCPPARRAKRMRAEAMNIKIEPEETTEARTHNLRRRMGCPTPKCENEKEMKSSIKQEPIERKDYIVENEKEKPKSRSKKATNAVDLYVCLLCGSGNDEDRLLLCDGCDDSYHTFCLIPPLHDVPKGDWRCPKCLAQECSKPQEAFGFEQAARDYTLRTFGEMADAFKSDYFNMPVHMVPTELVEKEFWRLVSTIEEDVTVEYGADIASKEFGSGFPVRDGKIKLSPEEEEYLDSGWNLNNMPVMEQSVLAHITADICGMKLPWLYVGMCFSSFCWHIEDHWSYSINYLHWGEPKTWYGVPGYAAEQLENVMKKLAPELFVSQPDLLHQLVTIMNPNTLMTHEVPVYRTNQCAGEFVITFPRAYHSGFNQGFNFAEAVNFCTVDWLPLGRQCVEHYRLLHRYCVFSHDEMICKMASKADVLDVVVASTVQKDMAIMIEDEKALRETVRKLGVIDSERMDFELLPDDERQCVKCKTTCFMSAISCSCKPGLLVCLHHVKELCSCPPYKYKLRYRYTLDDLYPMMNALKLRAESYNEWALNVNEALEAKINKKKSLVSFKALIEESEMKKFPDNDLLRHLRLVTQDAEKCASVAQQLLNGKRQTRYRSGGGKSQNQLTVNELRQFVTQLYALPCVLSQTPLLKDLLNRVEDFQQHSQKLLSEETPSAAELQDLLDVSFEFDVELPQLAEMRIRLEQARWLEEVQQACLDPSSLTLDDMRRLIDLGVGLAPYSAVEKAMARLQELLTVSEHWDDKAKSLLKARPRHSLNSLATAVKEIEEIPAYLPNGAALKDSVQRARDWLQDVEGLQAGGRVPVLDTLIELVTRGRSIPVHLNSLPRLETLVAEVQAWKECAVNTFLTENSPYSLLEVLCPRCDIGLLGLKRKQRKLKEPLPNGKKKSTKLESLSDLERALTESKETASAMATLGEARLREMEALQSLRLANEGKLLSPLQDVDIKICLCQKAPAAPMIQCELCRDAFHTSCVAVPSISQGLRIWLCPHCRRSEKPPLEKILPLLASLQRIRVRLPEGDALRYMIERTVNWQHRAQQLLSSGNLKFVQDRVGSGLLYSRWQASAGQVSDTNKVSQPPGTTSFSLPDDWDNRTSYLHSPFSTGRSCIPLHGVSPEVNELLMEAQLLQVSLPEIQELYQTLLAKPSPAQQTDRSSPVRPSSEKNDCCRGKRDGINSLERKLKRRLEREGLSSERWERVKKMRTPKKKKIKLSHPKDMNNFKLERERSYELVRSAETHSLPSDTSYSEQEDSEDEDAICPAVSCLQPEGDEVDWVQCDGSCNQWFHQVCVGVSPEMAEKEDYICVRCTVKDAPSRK

Compound | activity change, negative = inhibition | Potency
CC(C)(C)OC(=O)N1CCN(C(C(=O)O)c2c[nH]c3ccc(OCC#N)cc23)CC1 (stereo not given) | inactive: 12.2% | –
CC(C)n1cnc2cc(NCc3ccccn3)ccc21 | – | inconclusive: 39.8 µM [inhibitor, single point]
COc1ccccc1CNC(=O)c1cc2c(-c3ccc(Cl)cc3)nn(C)c2s1 | – | inconclusive: 25.1 µM [inhibitor, partial curve, poor fit]
O=S(=O)(NCC(c1ccco1)N1CCN(c2ccccc2)CC1)c1ccccc1 (stereo not given) | inconclusive: -30.7% [inhibitor] | –
O=C(NCc1ccc(OC(F)(F)F)cc1)N1CCc2nc3cc[nH]n3c(=O)c2C1 | – | inconclusive: 25.1 µM [inhibitor, partial curve, poor fit]
CCOc1ccc(Cn2nnc(C(=O)Nc3ccc(Cl)cc3)c2N)cc1 | – | inconclusive: 1.78 µM [inhibitor, partial curve, poor fit]
Cc1ccccc1C(=O)NC1CCN(c2cc(-c3ccc(F)cc3)[nH]n2)C1 (stereo not given) | – | inconclusive: 17.8 µM [inhibitor, partial curve, poor fit]
O=C(Nc1ccnn1C1CCN(Cc2ccc(-c3ccco3)cc2)CC1)C1CC1 | – | inconclusive: 15.8 µM [inhibitor, partial curve, poor fit]
CN1CCCC2(CCN(C(=O)c3cc(=O)[nH]c4ccc(F)cc34)C2)C1=O (stereo not given) | – | active: 25.1 µM
O=C(O)CCC(=O)OCc1ccccc1 | inactive: 9.85% | –
Cc1ccc(-n2c(C3CCN(C(=O)c4ccc(F)cc4)CC3)n[nH]c2=O)cc1 | inactive: -9.96% | –
O=C(O)C1CC=CCC1c1nc2ccccc2s1 (stereo not given) | inactive: 29.6% | –
CCCC(=O)Nc1ccc(Cl)c(NC(=O)c2cccc3ccccc23)c1 | – | inconclusive: 39.8 µM [inhibitor, single point]
CCOCC1(C)COc2ccc(C(=O)Nc3ccccc3)cc2N1 (stereo not given) | – | inconclusive: 50.1 µM [inhibitor, single point]
O=S(=O)(Nc1ncnc2sc3c(c12)CCC3)c1cc(F)ccc1F | inactive: 20.6% | –
Cc1cc(C)n(CC(=O)NCc2cc(N3CCOCC3)ncn2)c(=O)n1 | – | inconclusive: 20 µM [inhibitor, partial curve, poor fit]
COc1ccccc1CNc1ncncc1-c1nc(-c2ccccc2)no1 | – | active: 31.6 µM
CCSc1oc(-c2cccs2)nc1S(=O)(=O)c1ccc(Br)cc1 | – | inconclusive: 31.6 µM [inhibitor, partial curve, poor fit]
CCn1c(-c2ccccc2)nn(CC(=O)NCc2ccsc2)c1=O | inactive: 16.8% | –
Cc1ccccc1C(=O)Nc1c(C(=O)Nc2cccc(F)c2)oc2ccccc12 | – | inconclusive: 31.6 µM [inhibitor, single point]
CCCN1CCc2[nH]cnc2C12CCN(C(=O)CC1C=CS(=O)(=O)C1)CC2 (stereo not given) | – | inconclusive: 25.1 µM [inhibitor, partial curve, poor fit]
Cc1ccsc1C(=O)N1CCCn2cc(-c3cccc(C#N)c3)nc21 | – | active: 14.1 µM
O=C(CC1Nc2ccccc2NC1=O)Nc1ccccc1C(F)(F)F (stereo not given) | – | inconclusive: 28.2 µM [inhibitor, partial curve, poor fit]
O=C1NCCCc2[nH]c(-c3cnn(-c4cccc(F)c4)c3)nc21 | – | active: 28.2 µM

Compound | activity change, negative = inhibition | Potency
COc1ccc2[nH]c(=O)c(CCC(=O)NCCc3ccc(S(N)(=O)=O)cc3)cc2c1 | – | inconclusive: 31.6 µM [inhibitor, partial curve, poor fit]
COCCNC(=O)Cn1c(=O)c2cccn2c2ccc(F)cc21 | – | inconclusive: 15.8 µM [inhibitor, partial curve, poor fit]
COc1ccc(-c2[nH]nc3ncc(-c4cccc(CO)c4)nc23)c(C)c1 | – | inconclusive: 31.6 µM [inhibitor, single point]
CCn1nc(C(=O)OCc2ccc3cc(OC)ccc3c2)c2ccccc2c1=O | – | inconclusive: 31.6 µM [inhibitor, partial curve, poor fit]
Nc1c(C(=O)NC2CCCC2)nnn1-c1ccccc1 | inactive: 19.3% | –
O=[N+]([O-])c1cccc(-c2noc([C@@H]3C[C@@H](O)CN3Cc3cc4ccccc4o3)n2)c1 | – | inconclusive: 28.2 µM [inhibitor, single point]
Cc1ccc(-c2nnn(Cc3cc(Cl)c4c(c3)OCCCO4)n2)cc1 | inactive: 11.2% | –
CC(C)CCN1CCC2(CC1)CNC(=O)c1ccccc1O2 | inactive: 17% [at 149 µM] | –
CCOC(=O)c1c(NC(=S)N2CCN(C)CC2)sc2c1CCN(C(=O)OCC)C2 | – | inconclusive: 20 µM [inhibitor, partial curve, poor fit]
Cc1nc2scc(CC(=O)Nc3ccc(F)cc3)n2c(=O)c1-c1cc(C)n(-c2ccccc2F)n1 | – | inconclusive: 25.1 µM [inhibitor, partial curve, poor fit]
Cc1ccc(-c2[nH]c3ccccc3c2C=O)c(C)c1 | inactive: -14.6% | –
O=C(NCc1c[nH]c(=O)[nH]c1=O)C1CCN(Cc2ccco2)CC1 | inactive: -9.14% | –
O=c1cc(-c2cccnc2)nc2n(Cc3cccc(F)c3)c3ccccc3n12 | – | inconclusive: 39.8 µM [inhibitor, single point]
COc1cc(OC)cc(-c2cc3nc(C)c(CCC(=O)Nc4ccccc4OC)c(C)n3n2)c1 | – | inconclusive: 7.94 µM [inhibitor, partial curve, poor fit]
Cc1ccc(NC(=O)NCCc2c[nH]c3ccccc23)cc1 | inactive: -6.08% | –
Cc1cc(=O)oc2cc(OCc3ccc(C(=O)OCC4CCCO4)cc3)ccc12 (stereo not given) | – | inconclusive: 14.1 µM [inhibitor, partial curve, poor fit]
O=C(CN(c1ccc(Cl)c(C(F)(F)F)c1)S(=O)(=O)c1ccccc1)Nc1cccnc1 | – | inconclusive: 11.2 µM [inhibitor, partial curve, poor fit]
O=C(Cn1ccn2nc(-c3ccccc3)c(CO)c2c1=O)NC1CCCC1 | – | inconclusive: 28.2 µM [inhibitor, single point]
CN1c2cc(C(=O)Nc3cccc(Cl)c3)ccc2C(=O)N2CCCCCC21 (stereo not given) | – | inconclusive: 25.1 µM [inhibitor, partial curve, poor fit]
O=C(NCc1ccnc2[nH]ccc12)c1ccc2c(c1)OCO2 | – | inconclusive: 22.4 µM [inhibitor, partial curve]
COc1ccc(NC(=O)c2cc3n(n2)CC(c2ccc4c(c2)OCO4)OC3)cc1 (stereo not given) | – | inconclusive: 35.5 µM [inhibitor, partial curve, poor fit]
O=C(NCc1ccco1)c1cc(S(=O)(=O)C2CCS(=O)(=O)C2)ccc1F (stereo not given) | inactive: 10.1% | –
CC(=O)N1CC2(CCN(Cc3ccccn3)CC2)Cc2ccccc21 | inactive: -9.1% [at 149 µM] | –
CCCCCCCCCCS(=O)CCCl (stereo not given) | inactive: 1.78% | –

Compound | activity change, negative = inhibition | Potency
CCc1noc(C)c1C(=O)N1CC[C@@]2(O)CCN(S(C)(=O)=O)C[C@H]2C1 | inactive: 40.1% | –
N#Cc1ccccc1CSc1nnc2ccc3ccccc3n12 | inactive: -18.6% | –
COCc1c(Br)c(C)nc2sc3c(=O)n(-c4cccc(Br)c4)nnc3c12 | – | inconclusive: 25.1 µM [inhibitor, partial curve, poor fit]
COc1ccc(C(C)=O)c(OCc2ccc(C#N)cc2)c1 | inactive: 7.22% | –
CC(C)CNc1ccc2c(n1)C(C)(C(=O)N1CCOCC1)CN(Cc1ccccc1)C2 (stereo not given) | – | active: 31.6 µM
N#Cc1ccc(CN2CCCCCCNC(=O)CC2)cc1 | – | inconclusive: 35.5 µM [inhibitor, single point]
CCOC(=O)/C(C#N)=C/c1cccnc1 | inactive: 2.61% | –
CC[n+]1c(C)ccc2ccccc21 | – | inconclusive: 25.1 µM [inhibitor, partial curve, poor fit]
CCC(C(=O)NC1CCCCC1)n1c(SCc2cccc(C)c2)nc2ccncc21 (stereo not given) | – | inconclusive: 25.1 µM [inhibitor, single point]
Cc1onc(-c2c(F)cccc2Cl)c1C(=O)Nc1sc(C)c(-c2ccccc2)c1C(N)=O | – | inconclusive: 1.78 µM [inhibitor, partial curve, poor fit]
COc1ccc(-c2cc(N3CCC(NC(=O)Cc4ccccc4OC)CC3)n[nH]2)cc1 | inactive: -12.2% | –
O=C(O)c1cccc(-n2cnc3cccnc32)c1 | – | inconclusive: 25.1 µM [inhibitor, single point]
CCc1cccc(NC(=O)Cn2c(=O)cc(C(=O)NC)c3ccccc32)c1 | inactive: 14.7% | –
Cc1nc(NC(=O)c2ccccc2)sc1-c1csc(Nc2ccc(C(F)(F)F)cc2)n1 | – | inconclusive: 25.1 µM [inhibitor, partial curve, poor fit]
Cc1cc(C(=O)N2CCCC3(C2)Nc2cccnc2NC3=NCc2ccccc2)nn1C (stereo not given) | – | inconclusive: 28.2 µM [inhibitor, partial curve, poor fit]
COc1cccc(NC(=O)c2cc3c(-c4ccc(Cl)cc4)nn(C)c3s2)c1 | – | inconclusive: 35.5 µM [inhibitor, partial curve, poor fit]
CCCc1nc2ccccc2c(C(=O)OCC(=O)NCC(C)C)c1CC | inactive: -0.898% | –
CN(C)C[C@@H]1CN(Cc2ccccn2)C[C@H]1NC(=O)c1ccc2cc[nH]c2c1 | – | active: 28.2 µM
CCCOC(=O)c1ccc(Oc2c(C)oc3cc(OC(=O)C(C)C)ccc3c2=O)cc1 | – | inconclusive: 39.8 µM [inhibitor, single point]
COc1ccc(CCNc2nc3cc(OC)c(OC)cc3c3nc(-c4ccccc4)nn23)cc1OC | – | inconclusive: 28.2 µM [inhibitor, single point]
O=C(c1ccoc1)N1CCC(Cc2nc(C3CCOCC3)no2)CC1 | inactive: -7.31% | –
CNC(=O)N1CCc2c(sc3ncnc(NCCCOC)c23)C1 | inactive: -4110% | –
